Assay results taken from a compilation of properties of binary mixtures (doi:10.1007/s10953-010-9562-5).
The densities may have been worked out from excess volumes.

Assay: xn = mol fraction of the nth substance listed
Details: 101 kPa

CCCC[N+]1(C)CCCC1.O=S(=O)([N-]S(=O)(=O)C(F)(F)F)C(F)(F)F + CC1COC(=O)O1
mass density [kg/m3]
Details	293.15 K	298.15 K	303.15 K	308.15 K	313.15 K	318.15 K
x1 = 0.01	1230.9	1226	1221.1	1216	1211.1	–
x2 = 0	–	1382	1378	1374	1370	–
x2 = 0.05	1386.4	1381.2	1376.7	1372.2	1367.7	–
x2 = 0.11	1385.6	1380.3	1375.5	1370.7	1365.8	1360.8
x2 = 0.16	1384.5	1379.3	1374.3	1369.3	1364.3	1359.2
x2 = 0.21	1383.3	1378.1	–	1367.9	–	1357.9
x2 = 0.26	1381.8	1376.7	1371.6	1366.5	1361.5	1356.5
x2 = 0.32	1380	–	1370	1364.9	–	1354.9
x2 = 0.37	1377.8	–	1367.9	–	1358	1353
x2 = 0.42	1375	–	–	1360.3	1355.4	1350.5
x2 = 0.47	1371.5	1366.6	1361.8	1356.9	–	–
x2 = 0.53	–	1362.1	1357.3	1352.4	1347.6	1342.6
x2 = 0.58	1361.1	1356.2	1351.4	1346.6	1341.8	1336.7
x2 = 0.63	1353.7	–	–	1339.1	1334.2	1329.1
x2 = 0.68	1344.4	1339.5	1334.6	1329.6	1324.7	1319.5
x2 = 0.74	1332.8	1327.8	–	1317.9	1312.9	1307.6
x2 = 0.79	–	1313.5	1308.4	1303.4	–	1293
x2 = 0.84	1301.1	1296	–	1285.8	–	1275.4
x2 = 0.89	1280	1274.9	1269.8	1264.6	1259.5	–
x2 = 0.95	1254.8	1249.7	1244.6	1239.5	1234.5	1229.4
x2 = 0.96	1248.3	1243.2	1238.1	1233.1	1228	1223
x2 = 0.97	1242.7	1237.6	1232.6	1227.6	–	–
x2 = 0.98	1236.9	1231.9	1226.9	1221.9	1216.9	1211.9

CC1COC(=O)O1 (stereo unspecified) + CCCC[N+]1(C)CCCC1.O=S(=O)([N-]S(=O)(=O)C(F)(F)F)C(F)(F)F
x1 = 1
Details	mass density [kg/m3]
298.15 K	1219.9
308.15 K	1210
318.15 K	1200.2
